This sample is rich in variants without activity.
B1: tRNA (parent)
chain: CUCUCGGUAGCCAAGUUGGUUUAAGGCGCAAGACUUUAAUUUAUCACUACGAAAUCUUGAGAUCGGGCGUUCGACUCGCCCCCGGGAGAUUUUUUCCUCGAGCAA

Variants of: B1
Experiment: nonsense suppression (GFP-seq) (ratio to wild type); higher = more function; SUP4oc tRNA, yeast GFP reporter sort-seq
Procedure, shortened: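 Yeast were grown in raffinose/galactose medium with 80 mg/L adenine, each strain bearing a genome-integrated ochre-suppressor tRNA variant from a ~3% random-mutation library, a galactose-driven GFP ochre reporter, and RFP. After sorting into GFP/RFP bins, every bin was sequenced on an Illumina platform at phred ≥30. The GFPSEQ value, a measure of nonsense suppression, is the weighted bin median GFP/RFP relative to the unmutated parent tRNA, using each variant's estimated cell share per bin as the weight. Only variants with ≥100 reads and ≥30 cells were included.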

Nonsense suppression, ≤ 0.026:
CUCUCGGUAGCCACGUUGGUUUAAGGCGCAAGACUUUAAUUUAUCACUACGAAAUCUUGAGAUCGGGCGUUCGACUCGCCCCCAGGAGAUUUUUUCCUCGAGCAA
CUCUCGGUAGCCACGUUGGUUUAAGGCGCAAGACUUUAAUUUAUCACUACGAAAUCUUGAGAUCGGGCGUUCGACUCACCCCCGGGAGAUUUUUUCCUCGAGCAA
CUCUCGGUAGCCACGUUGGUUUAAGGCGCAAGACUUUAAUUUAUCACUACGAAAUCUUGAGAUCGGGCGUUCGACUCCCCCCCGGGAGAUUUUUUCCUCGAGCAA
CUCUCGGUAGCCACGUUGGUUUAAGGCGCAAGACUUUAAUUUAUCACUACGAAAUCUUAAGAUCGGGCGUUUGACUCGCCCCCGGGAGAUUUUUUCCUCGAGCAA
CUCUCGGUAGCCACGGUGGUUUAAGGCGCAAGACUUUAAUUUAUCACUACGAAAUCUUGAGAUCGGGCGUUCGGCUCGCCCCCGGGAGAUUUUUUCCUCGAGCAA
CUCUCGGUAGCCACGUUGGAUUAAGGCGCAAGACUUUAAUUUAUCACUACGAAAUCUUGAGAUCGGGCGUUCGACUCGACCCCGGGAGAUUUUUUCCUCGAGCAA
CUCUCGGUAGCCACGUUGCUUUAAGGCGCAAGACUUUAAUUUAUCACUACGAAAUCUUGAGAUCGGGCGUUCGACUCUCCCCCGGGAGAUUUUUUCCUCGAGCAA
CUCUCGGUAGCCACGUUGGUUUAACGCGCAAGAGUUUAAUUUAUCACUACGAAAUCUGGAGUUCGGGCGUUCGACUCCCCCCCGGGAGAUUUUUUCCUCGAGCAA
CUCUCGGUAGCCACGUUGGUUUAAGGCGCAAGACUUUAAUUUAUCACUACGAAAUCUUGAGAUCGCGCGUUCGACUCGCCCCCGGGAGAUUUUUUCCUCGAGCAA
CUCUCGGUAGCCACGUUGGUUUAAGGCGCAAGACUUUAAUUUAUCACUACGAAAUCUUGAAAUCGGGCGUUCGACUCGCCCCCGGGAGAUUUUUUCCUCGAGCAA
CUCUCGGUAGCCACGUUGAUUUAAGGCGCAAGACUUUAAUUUAUCACUACGAAAUCUUGAGAUCGGGUGUUCGACUCGCCCCCGGGAGAUUUUUUCCUCGAGCAA
CUCUCGGUAGCCACGUUGGUUUAAGGCGCAAGACUUUAAUUUAUCACUACGAAAUCUUGAGAUCCGGCGUUCGACUGGCCCCCGGGAGAUUUUUUCCUCGAGCAA
CUCUCGGUAGCCACGUUGGUUUAAAGCGCUAGACUUUAAUUUAUCACUACGAAAUCUUGAGAUCGGGCGUUCGACUCGCCCCCGGGAGAUUUUUUCCUCGAGCAA
CUCUCGGUAGCCACGUUGGUUUAAGGCGCAAGACUUUAAUUUAUCACUACGAAAUCUUGAUAGCGGGCGUGCGACUCGCCGCCGGGAGAUUUUUUCCUCGAGCAA
CUCUCGGUAGCCACGUUUGUUUAAGGCGCAAGACUUUAAUUUAUCACUACGAAAUCUUGAGGUCGGGCGUUCGACUCGCCCCCGGGAGAUUUUUUCCUCGAGCAA
CUCUCGGUAGCCACGUUGGUUUAAGGCGCAAGACUUUAAUUUAUCACUACGAAAUCUUGAGAUCAGGCGUUCGACUCGCCCGCGGGAGAUUUUUUCCUCGAGCAA
CUCUCGGUAGCCACGUUGGUUUAAGGCGCAAGACUUUAAUUUAUCACUACGAAAUCUUAAGAUCGGGCGUUCGACUCGCCCCCGGGAGAUUUUUUCCUCGAGCAA
CUCUCGGUAGCCACGUUGGUUUAAGGCGCAAGACUUUAAUUUAUCACUACGAAAUCUUGAAAUCGGGCGUUCGACUCGCUCCCGGGAGAUUUUUUCCUCGAGCAA
CUCUCGGUAGCCACGUUGGUUUAAGCCGCAAGACUUUAAUUUAUCACUACGAAAUCUUGAGAUCGGGCGUUCGACUGGCCCCCGGGAAAUUUUUUCCUCGAGCAA
CUCUCGGUAGCCACGGUGGUUUAAGGCGCAAGACUUUAAUUUAUCACUACGAAACCUUGAGAUCGGGCGUUCGACUCGCCCCCGGGAGAUUUUUUCCUCGAGCAA
CUCUCGGUAGCCACGUUGGUUUAAUGCGCAAGACUUUAAUUUAUCACUACGAAAUCUUGAGACCGGGCGUUCGACUCGCCCCCUGGAGAUUUUUUCCUCGAGCAA
CUCUCGGUAGCCACGUUGCUUUAAGGCGCAAGACUUUAAUUUAUCACUACGAAAUCCUGAGAUCGGGCGUUCUACUCGCCCCCGGGAGAUUUUUUCCUCGAGCAA
CUCUCGGUAGCCACGUUGGUUUAAGUCGCAAGAGUUUAAUUUAUCACUACGAAAUCUUGAGAUCGGGCGUUCAACUCGCCCCCGGGAGAUUUUUUCCUCGAGCAA
CUCUCGGUAGCCACGUUGGUUUAAGCCGCAAGACUUUAAUUUAUCACUACGAAAUCUUGAGCUCGGGCGUUCGACUCGCCCUCGGGAGAUUUUUUCCUCGAGCAA
CUCUCGGUAGCCACGCUGGUUUAUGGCGCAAGAUUUUAAUUUAUCACUACGAAAUCUUGAGAUCGGGCGUUCGACUCGCCCCCAGGAGAUUUUUUCCUCGAGCAA
CUCUCGGUAGCCACGUUGGUUUAAGGCCCAAGACUUUAAUUUAUCACUACGAAAUCUUGAGAUCGGACGUUCGACUCGCCGCCGGGAGAUUUUUUCCUCGAGCAA
CUCUCGGUAGCCACGUUGGUUUAAGACGCAAGACUUUAAUUUAUCACUACGAAAUCUUGAGAUCCGGCGUUCGACUCGCCCCCGGGAGAUUUUUUCCUCGAGCAA
